Paper PMC10726135
The other results are listed elsewhere or left out. At the low end of the ranking, values are background and their order means little. The protein was read in a cell extract, so binding may be indirect.

Target: T1, HNF4alpha8 (COS-7 nuclear extract) (UniProt P41235-5)
T1 sequence: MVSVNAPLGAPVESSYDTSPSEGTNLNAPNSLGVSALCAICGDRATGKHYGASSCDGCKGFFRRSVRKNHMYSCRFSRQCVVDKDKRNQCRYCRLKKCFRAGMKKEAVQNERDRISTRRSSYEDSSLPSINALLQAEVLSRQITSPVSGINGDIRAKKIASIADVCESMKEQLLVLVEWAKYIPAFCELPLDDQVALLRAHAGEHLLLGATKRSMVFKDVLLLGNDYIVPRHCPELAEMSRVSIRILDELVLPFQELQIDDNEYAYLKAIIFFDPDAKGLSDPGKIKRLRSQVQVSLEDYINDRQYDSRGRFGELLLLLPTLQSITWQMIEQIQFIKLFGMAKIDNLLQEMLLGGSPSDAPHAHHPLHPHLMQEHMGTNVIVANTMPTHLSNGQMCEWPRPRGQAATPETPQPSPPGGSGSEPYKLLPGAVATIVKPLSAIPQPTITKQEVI
Test: protein-binding microarray
Conditions: COS-7 nuclear extract on double-stranded Agilent 4x180k PBM; binding buffer, salt, pH and temperature not given; high values mean tight binding; double strand, one strand shown; sequences stand for … in …GCCTAGGGAGATTAGAGTATCGGTCGA

**Q.** Which binding signal (log2 normalized intensity) does the source give for ACTGACCCAGGGAGAAAGGTCAGGGGCAGG here?
**A.** 2.11

**Q.** For TATGGGTTAACAGAATGAACAGCTCTTCTT, which binding signal (log2 normalized intensity) is on record?
**A.** -0.999

**Q.** CCAGATGTTACCACCCAGACCAGTAACCTA was tested. Which binding signal (log2 normalized intensity) did it give?
**A.** -1.16

**Q.** How did the binding signal (log2 normalized intensity) turn out when CCTGTTTAAAGAATTTTTCCCCTAGTTACA was run?
**A.** 1.44

**Q.** How did the binding signal (log2 normalized intensity) turn out when TGGACTTTGCACTAAAAGCCATGAGAAGGT was run?
**A.** 5.41

**Q.** For AACTGGAGTAAAGGTCACTCTTGCTATGCA, which binding signal (log2 normalized intensity) is on record?
**A.** 3.94

**Q.** For CTTTCATCTTTGCGGTGAGCATTTGTTTAG, which binding signal (log2 normalized intensity) is on record?
**A.** 0.99

**Q.** Which binding signal (log2 normalized intensity) does the source give for GCTGCTACTTTAGCTGCCAGAGGTTCTTTC here?
**A.** 0.529

**Q.** How did the binding signal (log2 normalized intensity) turn out when CTGGCTGACCTTTAGCCTGGCCATTTCTCA was run?
**A.** 5.07

**Q.** With GAAGACCAACAGGTGAAGACATGCTGGTGT as the sequence, how does the binding signal (log2 normalized intensity) read?
**A.** -0.89

**Q.** How did the binding signal (log2 normalized intensity) turn out when AACATCAGGGTGCCAGCAGGTGGTCAGCCT was run?
**A.** -1.35

**Q.** How did the binding signal (log2 normalized intensity) turn out when GGGTTACAGGTGGACAAACAGGCTGAACAT was run?
**A.** -1.34

**Q.** Which binding signal (log2 normalized intensity) does the source give for ATTTAGTAAGTTCAAGAAGACCTTTGCTCC here?
**A.** 6.78

**Q.** With ACCCATCCCTTTGCAATAAAAGATTGCATC as the sequence, how does the binding signal (log2 normalized intensity) read?
**A.** 0.24

**Q.** How did the binding signal (log2 normalized intensity) turn out when ACTCTGACCCAGGAGCCTTCCGGAGGCTCT was run?
**A.** -1.27

**Q.** For TGAAGTAAATGCAGTTTGTCAAGTGCCCGG, which binding signal (log2 normalized intensity) is on record?
**A.** 1.35

**Q.** AAAAAATTCAAAGCAGAGGTGACCCTTGCA was tested. Which binding signal (log2 normalized intensity) did it give?
**A.** 3.93

**Q.** How did the binding signal (log2 normalized intensity) turn out when CAAAGTTATCAAGTTGCTTAAATTCTTGTA was run?
**A.** 0.696

**Q.** Which binding signal (log2 normalized intensity) does the source give for AGGGTATAGGATAAGGAATGAAGCAGAACC here?
**A.** -1.29

**Q.** CCACTCTGCCTTCAGCGGTGCATTTTTTTC was tested. Which binding signal (log2 normalized intensity) did it give?
**A.** 0.976

**Q.** How did the binding signal (log2 normalized intensity) turn out when TAATCAGCAAGTTTTATATGAAAACAAAGG was run?
**A.** 1.22

**Q.** With GTTGCCCAGCTATTAAATGGAATACTTGCC as the sequence, how does the binding signal (log2 normalized intensity) read?
**A.** -0.383

**Q.** Which binding signal (log2 normalized intensity) does the source give for GTTCGTGCTTCTTGGCCTCTTTGTTTACAC here?
**A.** 1.46

**Q.** GTTATCTCTTTTGTGATAGAATGAATGGAA was tested. Which binding signal (log2 normalized intensity) did it give?
**A.** 1.67

**Q.** How did the binding signal (log2 normalized intensity) turn out when GCTTCCAAGAATTTAAGAGAACTAGAGATA was run?
**A.** -1.37

**Q.** Which binding signal (log2 normalized intensity) does the source give for TTTTTCAGATCCCTCTGGTGCTGATGTGTT here?
**A.** 1.91

**Q.** For TTTTTTTGTTGTTATCCATTTAAAAAGTAT, which binding signal (log2 normalized intensity) is on record?
**A.** 1.35

**Q.** How did the binding signal (log2 normalized intensity) turn out when ATTGCCCCCTAATGGTATTTATTTTAAACC was run?
**A.** 2.33

**Q.** With GACAAAGTGTGCACTTTGCACCTGGGCTGG as the sequence, how does the binding signal (log2 normalized intensity) read?
**A.** 5.52

**Q.** How did the binding signal (log2 normalized intensity) turn out when GGATGTCTTTTGTTCTAATGAGGCCACTCC was run?
**A.** 1.16

**Q.** TATTCTATCAGTAGGTACGTTTGTGATACA was tested. Which binding signal (log2 normalized intensity) did it give?
**A.** 1.23

**Q.** With AGCTTAAGCATACAGATTACATCTCCAGCT as the sequence, how does the binding signal (log2 normalized intensity) read?
**A.** -1.36

**Q.** For ACCGGCCAAACTGGTTTCTCCGCTCGGGGA, which binding signal (log2 normalized intensity) is on record?
**A.** -1.23

**Q.** For TTTGCCCTTTTTAATGTTTCATTAAGCAAG, which binding signal (log2 normalized intensity) is on record?
**A.** 0.868

**Q.** With GATAAGGAATGAGGAGTCAGAGCGTGTTTC as the sequence, how does the binding signal (log2 normalized intensity) read?
**A.** -1.27

**Q.** CAATTCGCATTTCTGCTTCTTCTCATTCTT was tested. Which binding signal (log2 normalized intensity) did it give?
**A.** -0.111

**Q.** CCAAAGGAATCTACATAACAAACATTACTA was tested. Which binding signal (log2 normalized intensity) did it give?
**A.** -1.28

**Q.** For GCTTAAAACGACTGATTCTCAGGCATCTCT, which binding signal (log2 normalized intensity) is on record?
**A.** -1.37

**Q.** Which binding signal (log2 normalized intensity) does the source give for CCCAGTTCAAAGGTTAAGACTTTGAATCAG here?
**A.** 4.27

**Q.** How did the binding signal (log2 normalized intensity) turn out when CATTCTCTAATCAGGTCGCTGCCTGCCCCT was run?
**A.** 3.39

**Q.** For GGGGCAGGTAAGTACCAATATTTGTTAAGT, which binding signal (log2 normalized intensity) is on record?
**A.** 0.69

**Q.** Which binding signal (log2 normalized intensity) does the source give for TTCCTCCAGCCTGTCGGAATTTGCCCTGTG here?
**A.** 5.15

**Q.** Which binding signal (log2 normalized intensity) does the source give for GGCAAGCCGACTTACAGGACAAAAGTAAAT here?
**A.** -1.35

**Q.** How did the binding signal (log2 normalized intensity) turn out when TGCGCTGGCCTTGCTTTTCACAGTCGATCT was run?
**A.** -1.33

**Q.** How did the binding signal (log2 normalized intensity) turn out when ACCTGGACTTGAAGCCAGACTCTGCCATTT was run?
**A.** -1.32

**Q.** With AAACAACCCAGAGAATGCTAGACAAGGGAA as the sequence, how does the binding signal (log2 normalized intensity) read?
**A.** -1.34

**Q.** With TTCCCCTCCCTTCCACCTTTGCCCTCCAAA as the sequence, how does the binding signal (log2 normalized intensity) read?
**A.** 6.42

**Q.** With ATCTGGATTTTCAGGTTCCCCAGTGAGGAT as the sequence, how does the binding signal (log2 normalized intensity) read?
**A.** 1.46

**Q.** How did the binding signal (log2 normalized intensity) turn out when AGGTCAATGAAGCTCTTGCTGGTCAAGCTA was run?
**A.** -1.37

**Q.** How did the binding signal (log2 normalized intensity) turn out when AAACTGTATTGCTCAATGTCAAACACACTG was run?
**A.** -1.26

**Q.** How did the binding signal (log2 normalized intensity) turn out when TGCCCCTTCACATATTTTGAAAGAAAGAGA was run?
**A.** 1.31

**Q.** For CACAACTGGATGGTGTTTGATCTGATGTAC, which binding signal (log2 normalized intensity) is on record?
**A.** 2.01

**Q.** For GGCAGGGGAGAACTTCCTCCTCCTTGGCTC, which binding signal (log2 normalized intensity) is on record?
**A.** -1.24

**Q.** For CACAGGTAATAAGCAGTAGACTAAAACCCA, which binding signal (log2 normalized intensity) is on record?
**A.** -1.26

**Q.** How did the binding signal (log2 normalized intensity) turn out when TCACCAGGATGGGCCATGACCTTTACCCCC was run?
**A.** 10

**Q.** CAAATATTGAATGTGTTACACCTGTGTGTA was tested. Which binding signal (log2 normalized intensity) did it give?
**A.** 1.63

**Q.** Which binding signal (log2 normalized intensity) does the source give for AAAAGTGACCTTTGCTCCAGTTCCCAATAA here?
**A.** 7.02

**Q.** With TTGTCCTTAGACAGTAACCCTTGAGCTCTG as the sequence, how does the binding signal (log2 normalized intensity) read?
**A.** 3.73

**Q.** For AATTAATGTACCCCCGGAAACACGTCCTGT, which binding signal (log2 normalized intensity) is on record?
**A.** 4.14

**Q.** With GATAACCGAGGCTGACAGCAGAGAGTTTTC as the sequence, how does the binding signal (log2 normalized intensity) read?
**A.** -1.41

**Q.** How did the binding signal (log2 normalized intensity) turn out when CTAGTGTACAGGTGACCTTTGGAATGAACC was run?
**A.** 7.75

**Q.** With GTAAATGTACTGTAAACCTAGGTAGTGGAC as the sequence, how does the binding signal (log2 normalized intensity) read?
**A.** 1.55

**Q.** With ACCAACCTGTCCAAAGGTCATCTGTCACTC as the sequence, how does the binding signal (log2 normalized intensity) read?
**A.** 6.36

**Q.** For AAAGCAAGTTAAAACAGCAGAGCACGATGA, which binding signal (log2 normalized intensity) is on record?
**A.** -1.41

**Q.** Which binding signal (log2 normalized intensity) does the source give for TTTAACTTCTGGGGGCAAGGTACACCATCT here?
**A.** 3.99

**Q.** How did the binding signal (log2 normalized intensity) turn out when CCTTGCTAATAAATGATTCATTCAGCAAAT was run?
**A.** -1.06

**Q.** GTCAGGGAAGACTGATAAGAAAACTAGCAA was tested. Which binding signal (log2 normalized intensity) did it give?
**A.** -1.39

**Q.** With CACCATATGTATGTGAAGCTTGCTGATTAC as the sequence, how does the binding signal (log2 normalized intensity) read?
**A.** 0.969

**Q.** How did the binding signal (log2 normalized intensity) turn out when AATAAGCACGTTAGAGAAAAAGCCCAAGAA was run?
**A.** -1.28

**Q.** How did the binding signal (log2 normalized intensity) turn out when ACCAGTCAGGCAAACAACAGGCATCAACTC was run?
**A.** -1.29

**Q.** With GCTGGGGTTTTACCAGGCACGCATGGAATT as the sequence, how does the binding signal (log2 normalized intensity) read?
**A.** -1.34

**Q.** How did the binding signal (log2 normalized intensity) turn out when AGTTGCTCTGGAGTGCAGGTGGGAGGGGTG was run?
**A.** -1.39

**Q.** For GTGGCCGCGAGCACCGCGCGCGCAAAGCGG, which binding signal (log2 normalized intensity) is on record?
**A.** -1.42
